Measurements published in the supplement of paper PMC6089552.
About 300 (9.4%) of roughly 3,200 compounds showed activity. Only a part is listed here, and it is no random draw.

Tested on: A673/TR/shEF
Assay: cell viability (LOESS-normalised, relative to median of negative controls) (log2 ratio); higher = more viable cells (less compound effect), active = hit call of the paper (over 3 MAD below the median)
Conditions: treatment time: 72 h
In short: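 Viability of A673/TR/shEF Ewing sarcoma cells was determined by CellTiter-Glo luminescence. The cells, at 1,500 per well in 384-well plates, were grown with or without doxycycline from 24 h before compound addition to switch on EWS-FLI1 shRNA knockdown, then exposed for three days to library compounds at two or more concentrations or to DMSO controls. Signals were LOESS-corrected plate by plate, normalised to the negative-control median and log2-transformed.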

[1] = 0.103 µM, library screen: screen3, EWS-FLI1 expression: high (no doxycycline)
[2] = 0.103 µM, library screen: screen3, EWS-FLI1 expression: low (doxycycline-induced shRNA knockdown)
[3] = 0.308 µM, library screen: screen3, EWS-FLI1 expression: high (no doxycycline)
[4] = 0.308 µM, library screen: screen3, EWS-FLI1 expression: low (doxycycline-induced shRNA knockdown)
[5] = 0.926 µM, library screen: screen3, EWS-FLI1 expression: high (no doxycycline)
[6] = 0.926 µM, library screen: screen3, EWS-FLI1 expression: low (doxycycline-induced shRNA knockdown)
[7] = 2.8 µM, library screen: screen3, EWS-FLI1 expression: high (no doxycycline)
[8] = 2.8 µM, library screen: screen3, EWS-FLI1 expression: low (doxycycline-induced shRNA knockdown)
[9] = 8.3 µM, library screen: screen3, EWS-FLI1 expression: high (no doxycycline)
[10] = 8.3 µM, library screen: screen3, EWS-FLI1 expression: low (doxycycline-induced shRNA knockdown)
[11] = 25 µM, library screen: screen3, EWS-FLI1 expression: high (no doxycycline)
[12] = 25 µM, library screen: screen3, EWS-FLI1 expression: low (doxycycline-induced shRNA knockdown)
[13] = 0.25 µM, library screen: screen1, EWS-FLI1 expression: high (no doxycycline)
[14] = 0.25 µM, library screen: screen1, EWS-FLI1 expression: low (doxycycline-induced shRNA knockdown)
[15] = 2.5 µM, library screen: screen1, EWS-FLI1 expression: high (no doxycycline)
[16] = 2.5 µM, library screen: screen1, EWS-FLI1 expression: low (doxycycline-induced shRNA knockdown)
[17] = 0.25 µM, library screen: screen2, EWS-FLI1 expression: high (no doxycycline)
[18] = 0.25 µM, library screen: screen2, EWS-FLI1 expression: low (doxycycline-induced shRNA knockdown)
[19] = 2.5 µM, library screen: screen2, EWS-FLI1 expression: high (no doxycycline)
[20] = 2.5 µM, library screen: screen2, EWS-FLI1 expression: low (doxycycline-induced shRNA knockdown)
[21] = 25 µM, library screen: screen1, EWS-FLI1 expression: high (no doxycycline)

## O=C(O)CSCC(=O)NC1CCSC1=O (stereo not given)
[1]
  cell viability (log2): inactive: 0.0382
[2]
  cell viability (log2): inactive: 0.0164
[3]
  cell viability (log2): inactive: 0.0384
[4]
  cell viability (log2): inactive: 0.0888
[5]
  cell viability (log2): inactive: 0.0295
[6]
  cell viability (log2): inactive: 0.0633
[7]
  cell viability (log2): inactive: -0.0368
[8]
  cell viability (log2): inactive: 0.0578
[9]
  cell viability (log2): inactive: 0.0607
[10]
  cell viability (log2): inactive: 0.0674
[11]
  cell viability (log2): inactive: 0.0738
[12]
  cell viability (log2): inactive: 0.036

## CC(C)=CCOc1cc2oc(=O)ccc2cc1O
[13]
  cell viability (log2): inactive: 0.00827
[14]
  cell viability (log2): inactive: 0.0441
[15]
  cell viability (log2): inactive: 0.122
[16]
  cell viability (log2): inactive: 0.0618

## COC(=O)[C@H](O)[C@H]1C(C)(C)[C@H](O)[C@@H]2CC3=C4CC(=O)O[C@@H](c5ccco5)[C@]4(C)CC[C@@H]3[C@@]1(C)C2=O
[13]
  cell viability (log2): inactive: 0.0837
[14]
  cell viability (log2): inactive: 0.0423
[15]
  cell viability (log2): inactive: 0.0416
[16]
  cell viability (log2): inactive: -0.137

## CCCn1c(=O)c2[nH]c(-c3ccc(OCC(=O)Nc4ccc(C#N)cc4)cc3)nc2n(CCC)c1=O
[17]
  cell viability (log2): inactive: 0.103
[18]
  cell viability (log2): inactive: 0.0552
[19]
  cell viability (log2): inactive: 0.104
[20]
  cell viability (log2): inactive: 0.0865

## COc1ccc2nc([S+]([O-])Cc3ncc(C)c(OC)c3C)[nH]c2c1 (stereo not given)
[1]
  cell viability (log2): inactive: 0.0555
[2]
  cell viability (log2): inactive: 0.0372
[3]
  cell viability (log2): inactive: -0.0266
[4]
  cell viability (log2): inactive: 0.0199
[5]
  cell viability (log2): inactive: -0.0106
[6]
  cell viability (log2): inactive: 0.0522
[7]
  cell viability (log2): inactive: -0.0439
[8]
  cell viability (log2): inactive: 0.0389
[9]
  cell viability (log2): inactive: -0.0449
[10]
  cell viability (log2): inactive: 0.0231
[11]
  cell viability (log2): inactive: -0.03
[12]
  cell viability (log2): inactive: -0.014

## CC(=O)OCC(=O)[C@@]1(O)CC[C@H]2[C@@H]3CC[C@@H]4C[C@H](OC(C)=O)CC[C@]4(C)[C@H]3C(=O)C[C@@]21C
[13]
  cell viability (log2): inactive: 0.118
[14]
  cell viability (log2): inactive: 0.0343
[15]
  cell viability (log2): inactive: 0.0611
[16]
  cell viability (log2): inactive: -0.0696

## NCC[C@H](O)C(=O)N[C@@H]1C[C@H](N)[C@@H](O[C@H]2O[C@H](CN)[C@@H](O)[C@H](O)[C@H]2O)[C@H](O)[C@H]1O[C@H]1O[C@H](CO)[C@@H](O)[C@H](N)[C@H]1O
[13]
  cell viability (log2): inactive: 0.0759
[14]
  cell viability (log2): inactive: 0.0848
[15]
  cell viability (log2): inactive: 0.168
[16]
  cell viability (log2): inactive: 0.167

## CC(C)C1CCC(C(=O)N[C@H](Cc2ccccc2)C(=O)O)CC1 (stereo not given in full)
[1]
  cell viability (log2): inactive: 0.0543
[2]
  cell viability (log2): inactive: 0.116
[13]
  cell viability (log2): inactive: 0.138
[14]
  cell viability (log2): inactive: 0.0814
[3]
  cell viability (log2): inactive: 0.106
[4]
  cell viability (log2): inactive: 0.0564
[5]
  cell viability (log2): inactive: 0.127
[6]
  cell viability (log2): inactive: 0.101
[15]
  cell viability (log2): inactive: 0.113
[16]
  cell viability (log2): inactive: 0.0941
[7]
  cell viability (log2): inactive: 0.12
[8]
  cell viability (log2): inactive: 0.0638
[9]
  cell viability (log2): inactive: 0.0522
[10]
  cell viability (log2): inactive: 0.0477
[11]
  cell viability (log2): inactive: 0.0988
[12]
  cell viability (log2): inactive: 0.0513

## COc1ccc2c(=O)c(CC(=O)O)coc2c1
[13]
  cell viability (log2): inactive: 0.0632
[14]
  cell viability (log2): inactive: 0.171
[15]
  cell viability (log2): inactive: 0.119
[16]
  cell viability (log2): inactive: 0.0778

## CNc1ccccc1C(=O)N1CCc2c([nH]c3ccccc23)C1=O
[13]
  cell viability (log2): inactive: 0.0191
[14]
  cell viability (log2): inactive: -0.0744
[15]
  cell viability (log2): inactive: 0.0945
[16]
  cell viability (log2): inactive: 0.0188

## COCCOC(=O)C1=C(C)NC(=S)NC1c1ccccc1OC (stereo not given)
[13]
  cell viability (log2): inactive: 0.0949
[14]
  cell viability (log2): inactive: 0.0382
[15]
  cell viability (log2): inactive: 0.0563
[16]
  cell viability (log2): inactive: 0.0651

## CCCCCCCCCCCCC/C=C/[C@@H](O)[C@@H](N)CO
[21]
  cell viability (log2): active: -4.25
25 µM, library screen: screen1, EWS-FLI1 expression: low (doxycycline-induced shRNA knockdown)
  cell viability (log2): active: -4.31

## COc1ccccc1OCC(O)COC(N)=O (stereo not given)
[1]
  cell viability (log2): inactive: 0.0279
[2]
  cell viability (log2): inactive: 0.00385
[13]
  cell viability (log2): inactive: 0.0999
[14]
  cell viability (log2): inactive: 0.0902
[3]
  cell viability (log2): inactive: 0.0286
[4]
  cell viability (log2): inactive: 0.175
[5]
  cell viability (log2): inactive: 0.0956
[6]
  cell viability (log2): inactive: 0.0529
[15]
  cell viability (log2): inactive: 0.13
[16]
  cell viability (log2): inactive: 0.117
[7]
  cell viability (log2): inactive: 0.0771
[8]
  cell viability (log2): inactive: 0.0824
[9]
  cell viability (log2): inactive: 0.057
[10]
  cell viability (log2): inactive: 0.0934
[11]
  cell viability (log2): inactive: 0.035
[12]
  cell viability (log2): inactive: 0.0424

## Cc1cc(N)c2ccccc2[n+]1CCCCCCCCCC[n+]1c(C)cc(N)c2ccccc21
[15]
  cell viability (log2): active: -1.46
[16]
  cell viability (log2): active: -0.54
[19]
  cell viability (log2): active: -0.865
[20]
  cell viability (log2): active: -0.463

## Nc1c2c(nc3ccccc13)CCCC2O (stereo not given)
[13]
  cell viability (log2): inactive: 0.0588
[14]
  cell viability (log2): inactive: 0.0031
[17]
  cell viability (log2): inactive: 0.124
[18]
  cell viability (log2): inactive: 0.114
[15]
  cell viability (log2): inactive: 0.149
[16]
  cell viability (log2): inactive: 0.0647
[19]
  cell viability (log2): inactive: 0.221
[20]
  cell viability (log2): inactive: -0.00778

## Nc1ccn([C@@H]2CS[C@H](CO)O2)c(=O)n1
[1]
  cell viability (log2): inactive: 0.125
[2]
  cell viability (log2): inactive: 0.0191
[3]
  cell viability (log2): inactive: 0.0768
[4]
  cell viability (log2): inactive: 0.0559
[5]
  cell viability (log2): inactive: 0.0245
[6]
  cell viability (log2): inactive: 0.0926
[7]
  cell viability (log2): inactive: 0.132
[8]
  cell viability (log2): inactive: 0.0391
[9]
  cell viability (log2): inactive: 0.0536
[10]
  cell viability (log2): inactive: 0.0703
[11]
  cell viability (log2): inactive: 0.101
[12]
  cell viability (log2): inactive: 0.0951

## Cn1cnnc1SCC(=O)N1c2ccccc2CCc2ccccc21
[13]
  cell viability (log2): inactive: 0.0935
[14]
  cell viability (log2): inactive: 0.0627
[15]
  cell viability (log2): inactive: 0.0921
[16]
  cell viability (log2): inactive: 0.0613

## NCCNC(=O)c1ccc(Cl)cc1
[13]
  cell viability (log2): inactive: 0.0791
[14]
  cell viability (log2): inactive: 0.0423
[17]
  cell viability (log2): inactive: 0.247
[18]
  cell viability (log2): inactive: 0.132
[15]
  cell viability (log2): inactive: 0.0823
[16]
  cell viability (log2): inactive: 0.0523
[19]
  cell viability (log2): inactive: 0.247
[20]
  cell viability (log2): inactive: 0.168

## Cn1ccc2cc3c(cc21)CCN3C(=O)Nc1cccnc1
[17]
  cell viability (log2): inactive: 0.134
[18]
  cell viability (log2): inactive: 0.0695
[19]
  cell viability (log2): inactive: 0.183
[20]
  cell viability (log2): inactive: 0.0498

## O=C(O)CP(=O)(O)O
[17]
  cell viability (log2): inactive: 0.0699
[18]
  cell viability (log2): inactive: 0.158
[19]
  cell viability (log2): inactive: 0.0879
[20]
  cell viability (log2): inactive: 0.103

## N#CC(C#N)=C(N)/C(C#N)=C/c1cc(O)c(O)c(O)c1
[15]
  cell viability (log2): active: -0.312
[21]
  cell viability (log2): active: -0.175

## CCCSc1ccc2nc(NC(=O)OC)[nH]c2c1
0.025 µM, library screen: screen2, EWS-FLI1 expression: high (no doxycycline)
  cell viability (log2): inactive: 0.0864
0.025 µM, library screen: screen2, EWS-FLI1 expression: low (doxycycline-induced shRNA knockdown)
  cell viability (log2): inactive: 0.0115
[1]
  cell viability (log2): inactive: 0.197
[2]
  cell viability (log2): inactive: -0.0327
[13]
  cell viability (log2): active: -0.206
[14]
  cell viability (log2): inactive: -0.0499
[17]
  cell viability (log2): inactive: 0.0348
[18]
  cell viability (log2): inactive: 0.051
[3]
  cell viability (log2): inactive: 0.0506
[4]
  cell viability (log2): inactive: 0.123
[5]
  cell viability (log2): inactive: 0.0609
[6]
  cell viability (log2): inactive: 0.0788
[15]
  cell viability (log2): active: -1.99
[16]
  cell viability (log2): active: -1.04
[19]
  cell viability (log2): inactive: 0.158
[20]
  cell viability (log2): inactive: 0.0631
[7]
  cell viability (log2): active: -0.524
[8]
  cell viability (log2): inactive: 0.00738
[9]
  cell viability (log2): active: -1.81
[10]
  cell viability (log2): active: -0.886
25 µM, library screen: screen2, EWS-FLI1 expression: high (no doxycycline)
  cell viability (log2): active: -1.74
25 µM, library screen: screen2, EWS-FLI1 expression: low (doxycycline-induced shRNA knockdown)
  cell viability (log2): active: -0.157
[11]
  cell viability (log2): active: -2.99
[12]
  cell viability (log2): active: -1.16
